This passage reports MIC results from patent US5348949A, “Method of preparing N-oxo-tetrahydro-β-carbolines” (Duphar International Research B.V., priority 1989, dated 1994).

Common to all, as to experiment: microbe, parasite or virus in culture
For assay [1], the system named is Herpes simplex virus-1 (B2006) C158/77. The note with it: Human alphaherpesvirus 1, read-out: MIC Herpes simplex virus-1 (B2006) C158/77. On the procedure: (§1) Antiviral activity of some eudistomin derivatives was determined in a large number of in-vitro assays as described in reference 9. These tests are all based on the inhibition of virus induced cytopathogenicity. Depending upon the virus studied, different cell cultures were used. […] New compound 67 has the additional advantage of a 10-fold higher potency as compared with known compound 63.

The subject of assay [2] is Herpes simplex virus-1 (B2006) #3. To be noted: Human alphaherpesvirus 1, read-out: MIC Herpes simplex virus-1 (B2006) #3. The protocol: as §1
Assay [3] concerns Herpes simplex virus-1 (B2006) C137/101. The note with it: Human alphaherpesvirus 1, read-out: MIC Herpes simplex virus-1 (B2006) C137/101. On the procedure:
as §1

Structures are written as SMILES. Converted amounts (≈) assume the structure as drawn. Bounds are passed on as bounds.

For `COc1ccc2[nH]c3c(c2c1)CCN1OCSCC(N)C31` [Compound 67, (1S,13bS)-5-methoxy Eudistomin L], the MIC in assay [1] came to 0.023 µg/mL (≈ 0.0753 µM); in assay [2] it was 0.055 µg/mL (≈ 0.18 µM); in assay [3], 0.0085 µg/mL (≈ 0.0278 µM).

For `NC(=O)c1ncn([C@@H]2O[C@H](CO)[C@@H](O)[C@H]2O)n1` [Ribavirin, ribavirin, reference compound], the MIC in assay [1], in assay [2] and in assay [3] was above 200 µg/mL in each case.

For `N[C@@H]1CSCON2CCc3c([nH]c4ccccc34)[C@H]12` [Compound 63, (1S.13bS)-debromo Eudistomin L], the MIC is 0.7 µg/mL (≈ 2.54 µM) in assay [1], 0.85 µg/mL (≈ 3.09 µM) in assay [2] and 0.7 µg/mL (≈ 2.54 µM) in assay [3].

For the molecule `c1ccc2c3c([nH]c2c1)C1CCSCON1CC3` (racemic) [Compound 50, (±)-Deamino, debromo Eudistomin L], the MIC in assay [1], in assay [2] and in assay [3] was above 70 µg/mL each time.
